Test results: article PMC4336329 (PLoS ONE, 2015)
In all, about 310,000 compounds went through this assay and about 14,000 (4.5%) showed an effect of 50% or more. Effects have a minus sign here. The list shows a part of the results.

Molecular target: human ether-à-go-go-related gene (hERG) potassium channel (human, UniProt Q12809)
Test: primary screen, population patch clamp on CHO cells stably expressing hERG
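Note: peak tail current of the secondary pulse compared with the same well before compound.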

Chain of human ether-à-go-go-related gene (hERG) potassium channel (Q12809 whole entry, looked up): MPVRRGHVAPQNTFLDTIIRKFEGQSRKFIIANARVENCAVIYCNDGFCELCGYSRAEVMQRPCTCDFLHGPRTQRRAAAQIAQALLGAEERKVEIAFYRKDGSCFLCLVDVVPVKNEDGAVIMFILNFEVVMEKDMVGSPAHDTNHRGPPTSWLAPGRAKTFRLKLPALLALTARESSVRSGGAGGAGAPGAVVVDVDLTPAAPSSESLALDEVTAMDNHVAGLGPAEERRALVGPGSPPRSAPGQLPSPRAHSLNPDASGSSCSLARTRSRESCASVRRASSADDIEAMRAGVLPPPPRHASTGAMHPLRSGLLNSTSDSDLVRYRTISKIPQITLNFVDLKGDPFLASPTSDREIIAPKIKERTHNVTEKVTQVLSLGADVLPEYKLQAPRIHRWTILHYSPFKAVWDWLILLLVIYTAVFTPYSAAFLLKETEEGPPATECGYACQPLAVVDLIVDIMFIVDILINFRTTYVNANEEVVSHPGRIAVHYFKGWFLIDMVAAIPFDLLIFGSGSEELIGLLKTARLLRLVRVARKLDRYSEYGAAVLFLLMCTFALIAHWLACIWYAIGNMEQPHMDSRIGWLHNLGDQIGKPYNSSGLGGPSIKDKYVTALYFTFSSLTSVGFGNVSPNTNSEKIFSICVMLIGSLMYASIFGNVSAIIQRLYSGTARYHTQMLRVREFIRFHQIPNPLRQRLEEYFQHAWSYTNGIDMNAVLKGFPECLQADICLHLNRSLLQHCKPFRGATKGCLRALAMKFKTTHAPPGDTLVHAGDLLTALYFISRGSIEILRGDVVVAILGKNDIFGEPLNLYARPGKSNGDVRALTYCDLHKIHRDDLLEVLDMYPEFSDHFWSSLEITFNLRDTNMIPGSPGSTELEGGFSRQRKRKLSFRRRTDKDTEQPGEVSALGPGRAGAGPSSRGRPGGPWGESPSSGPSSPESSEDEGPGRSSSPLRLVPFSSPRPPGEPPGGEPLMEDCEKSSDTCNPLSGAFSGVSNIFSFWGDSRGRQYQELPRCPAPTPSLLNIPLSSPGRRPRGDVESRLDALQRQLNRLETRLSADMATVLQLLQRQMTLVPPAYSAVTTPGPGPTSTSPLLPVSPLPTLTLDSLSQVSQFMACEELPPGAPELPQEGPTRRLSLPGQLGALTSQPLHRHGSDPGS

Row | Compound | hERG current change (%, negative = inhibition) at 10uM [%]
1 | O=[N+]([O-])c1ccc(C2C3C(c4ccccc4)=NC4(CCCC4)N32)cc1 (stereo not shown) | -22
2 | Cc1cc(C)c(NC(=O)CN(C)CC(=O)N(C)CC(=O)Nc2c(Cl)cccc2Cl)c(C)c1 | 9.65
3 | Cc1ccc(Nc2c([N+](=O)[O-])c(=O)n(C)c3ccccc23)cc1C | -21.3
4 | Cc1cccc(C)c1N(C(=O)c1ccco1)C(C(=O)NC1CCCC1)c1ccncc1 (stereo not shown) | -1.34
5 | COc1cc2c(cc1OC)C(c1ccccc1)=NCC2 | -23.6
6 | CC1CCCCN1S(=O)(=O)c1cccc2cccnc12 (stereo not shown) | -6.1
7 | O=C(Nc1ccc(CN2CCS(=O)(=O)CC2)cc1)c1ccc(F)cc1 | 4.26
8 | CCOc1c(Cl)cc(Cl)cc1CNCCNCCO.Cl | -1.91
9 | COC(=O)c1ccccc1N(C)S(C)(=O)=O | 6.47
10 | Cc1cccc(CSCCNC(=O)CN(c2cc(C)cc(C)c2)S(C)(=O)=O)c1 | -23.9
11 | CCOc1ccc(NC(=O)CN2CCN(S(=O)(=O)c3ccc(Cl)cc3)CC2)cc1 | -9.26
12 | c1ccc(Cn2c(CNc3nc4ccccc4n3CCN3CCCCC3)nc3ccccc32)cc1 | -68.5
13 | CN(c1ccc(OCC(=O)OCc2nnc(-c3ccccc3)o2)cc1)S(=O)(=O)c1ccc(Cl)cc1 | -7.85
14 | O=C(Nc1ccc(S(=O)(=O)Nc2ncccn2)cc1)c1cccc(S(=O)(=O)N2CCOCC2)c1 | 11.4
15 | O=C(c1ccc(Cl)c([N+](=O)[O-])c1)N(Cc1ccc(F)cc1)C1CCS(=O)(=O)C1 (stereo not shown) | -27
16 | CCN1CCN(c2ccc(S(=O)(=O)N3CCOCC3)cc2NC(=O)c2ccc(C(F)(F)F)cc2)CC1 | -44.2
17 | O=C(NC1CCCc2ccccc21)C1CCN(S(=O)(=O)c2cccc(C(F)(F)F)c2)CC1 (stereo not shown) | -10.8
18 | CCOC(=O)CN1CC23C=CC(O2)C(C(=O)Nc2ccc(C(C)=O)cc2)C3C1=O (stereo not shown) | 4.98
19 | CCCOC(=O)c1ccc(NC(=O)c2ccccc2OC)cc1 | 4.44
20 | CCc1c(C)nc2c(OC)cccc2c1Cl | -2.25
21 | CCOC(=O)C(NC(=O)OC(C)C)(Nc1nccs1)C(F)(F)F (stereo not shown) | -5.14
22 | CCOC(=O)c1c(NC(=O)CSc2nc3ccccc3c(=O)n2-c2ccccc2)sc(C(C)=O)c1C | 15.8
23 | O=[N+]([O-])c1c(NCCO)cc(N2CCCCCC2)c2nonc12 | 11.7
24 | O=C(CN1CCc2ccccc2C1)Nc1ccccc1Cl | -21.2
25 | CC1(OCON)CCCc2ccccc21 (stereo not shown) | 11.5
26 | O=C(c1cc(COc2c(F)cccc2F)on1)N1CCC(c2ccccc2Cl)C1 (stereo not shown) | -1.7
27 | COc1cccc(NC2=C(C#N)C(=O)NC(c3cccc(OC)c3O)S2)c1 (stereo not shown) | 16
28 | O=C1CCCCC1C(=O)c1cn(-c2ccc(Cl)c(Cl)c2)nn1 (stereo not shown) | 5.99

Row | Compound | hERG current change (%, negative = inhibition) at 10uM [%]
29 | O=C(N/C(=C\c1ccc(Cl)cc1)C(=O)N1CCOCC1)c1ccc([N+](=O)[O-])cc1 | -83
30 | O=C(c1ccc2ccccc2c1)N1CCCCC1 | 10.5
31 | O=C(CSc1nnnn1C1CC2CCC1C2)Nc1ccnc2ccccc12 (stereo not shown) | -4.96
32 | COc1ccc(C2=NOC(C)(c3nnc(Cc4ccccc4)o3)C2)cc1 (stereo not shown) | 2
33 | Cc1ccc(-c2c(C)c(-c3ccc(F)cc3)nc(N)c2C#N)o1 | -13
34 | Fc1ccc(NC(=S)NN=C2CCCCCC2)cc1 | 5.61
35 | CCCCOC(=O)Nc1nc2ccccc2s1 | -10.1
36 | CCOC(=O)CSC1=C(C#N)C(c2ccc(Cl)cc2)C(C(=O)OC)C(=O)N1 (stereo not shown) | -7.59
37 | Cc1ccc(S(=O)(=O)N2CCN(c3ccc([N+](=O)[O-])c(Sc4nncn4C)c3)CC2)cc1 | -62.3
38 | Oc1nc(-c2ccc(Cl)cc2)n2ccncc12 | 72
39 | COc1cccc(C2=CC(=O)CCC2)c1OC | 12.3
40 | COc1cccc(NC(=S)N2CCN(S(=O)(=O)c3ccc(F)cc3)CC2)c1 | -1.7
41 | O=C(Cn1nnc(-c2cccs2)n1)N1c2ccccc2Sc2ccc(C(F)(F)F)cc21 | 11.6
42 | COc1ccccc1-c1nnc(SC(C(=O)c2c[nH]c3ccccc23)c2ccccc2)n1C (stereo not shown) | 20.8
43 | CC(C)(C)NC(=O)c1ccc(NC(=O)C2COc3ccccc3O2)cc1 (stereo not shown) | -2.96
44 | COc1cccc(CN2CC(C(=O)NCCOc3ccccc3F)CCC2=O)c1 (stereo not shown) | 4.61
45 | Cn1cc(C(=O)Nc2ccc(F)c(F)c2)cn1 | 17.7
46 | O=C(CN1CCN(c2ccccn2)CC1)NCCc1ccccc1 | -9.55
47 | O=C(O)C1C2CCC(C2)C1C(=O)Nc1cc(F)ccc1F (stereo not shown) | 2.97
48 | CN(CC(=O)Nc1c(Cl)cccc1Cl)C(=O)c1cccc(-n2cccc2)c1 | -22.3
49 | COc1cccc(CNC(=O)CN(C)S(=O)(=O)c2cnc[nH]2)c1 | 13.5
50 | O=C(CSc1nnc(NC(=O)c2ccccc2C(=O)O)s1)Nc1ccccc1Cl | 24
51 | CC(NC(=O)c1cc([N+](=O)[O-])cc([N+](=O)[O-])c1)c1ccc(-n2ccnc2)cc1 (stereo not shown) | -73.5
52 | COc1cc(C(=O)Nc2ccn(C)n2)ccc1OC(F)F | 8.36
53 | C=C(c1ccc(OC)cc1)c1ccc(OC)cc1 | 4.98
54 | CCOC(=O)c1cccc(NC(=O)C2CCCN(c3nnc(N4CCCC4=O)s3)C2)c1 (stereo not shown) | -4.12
55 | C[C@H]1CN=C2N(CCNC(=O)CCC3CCCCC3)[C@H](Cc3ccc(O)cc3)CN21 | 9.65
